# Measurements published in the supplement of paper PMC8728848.
# Some of the results follow.
# What was measured:
# Test in all cases: glycan array binding signal (z-score within array); higher = stronger binding
# Conditions in all cases: glycan notation: IUPAC condensed, linker removed
# [1] = target: Gal(b1-4)GlcNAc(b1-3)Gal(b1-4)GlcNAc(b1-2)Man(a1-3)[Gal(b1-4)GlcNAc(b1-3)Gal(b1-4)GlcNAc(b1-2)Man(a1-6)]Man(b1-4)GlcNAc(b1-4)[Fuc(a1-6)]GlcNAc
# In short: (§1)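 The Consortium for Functional Glycomics database supplied 3228 glycan arrays, of which those lacking an available protein sequence were dropped. The binding signal, a within-array Z-score, was averaged across arrays of the same protein sequence and across linkers. Negative scores can be read as non-binding.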
# [2] = target: Gal(b1-4)GlcNAc(b1-3)Gal(b1-4)GlcNAc(b1-2)[Gal(b1-4)GlcNAc(b1-3)Gal(b1-4)GlcNAc(b1-6)]Man(a1-6)[Gal(b1-4)GlcNAc(b1-3)Gal(b1-4)GlcNAc(b1-2)Man(a1-3)]Man(b1-4)GlcNAc(b1-4)GlcNAc
# In short: as §1
# [3] = target: Gal(b1-4)GlcNAc(b1-3)Gal(b1-4)GlcNAc(b1-2)[Gal(b1-4)GlcNAc(b1-3)Gal(b1-4)GlcNAc(b1-6)]Man(a1-6)[Gal(b1-4)GlcNAc(b1-3)Gal(b1-4)GlcNAc(b1-2)Man(a1-3)]Man(b1-4)GlcNAc(b1-4)[Fuc(a1-6)]GlcNAc
# In short: as §1
# [4] = target: Gal(b1-4)GlcNAc(b1-3)Gal(b1-4)GlcNAc(b1-3)Gal(b1-4)GlcNAc
# In short: as §1
# [5] = target: Gal(b1-4)GlcNAc(b1-3)Gal(b1-4)GlcNAc(b1-3)Gal(b1-4)GlcNAc(b1-2)Man(a1-3)[Gal(b1-4)GlcNAc(b1-3)Gal(b1-4)GlcNAc(b1-3)Gal(b1-4)GlcNAc(b1-2)Man(a1-6)]Man(b1-4)GlcNAc(b1-4)GlcNAc
# In short: as §1
# [6] = target: Gal(b1-4)GlcNAc(b1-3)Gal(b1-4)GlcNAc(b1-3)Gal(b1-4)GlcNAc(b1-2)Man(a1-3)[Gal(b1-4)GlcNAc(b1-3)Gal(b1-4)GlcNAc(b1-3)Gal(b1-4)GlcNAc(b1-2)Man(a1-6)]Man(b1-4)GlcNAc(b1-4)[Fuc(a1-6)]GlcNAc
# In short: as §1
# [7] = target: Gal(b1-4)GlcNAc(b1-3)Gal(b1-4)GlcNAc(b1-3)Gal(b1-4)GlcNAc(b1-2)[Gal(b1-4)GlcNAc(b1-3)Gal(b1-4)GlcNAc(b1-3)Gal(b1-4)GlcNAc(b1-6)]Man(a1-6)[Gal(b1-4)GlcNAc(b1-3)Gal(b1-4)GlcNAc(b1-3)Gal(b1-4)GlcNAc(b1-2)Man(a1-3)]Man(b1-4)GlcNAc(b1-4)[Fuc(a1-6)]GlcNAc
# In short: as §1
# [8] = target: Gal(b1-4)GlcNAc(b1-3)Gal(b1-4)GlcNAc(b1-3)Gal(b1-4)GlcNAc(b1-3)Gal(b1-4)GlcNAc(b1-2)Man(a1-3)[Gal(b1-4)GlcNAc(b1-3)Gal(b1-4)GlcNAc(b1-3)Gal(b1-4)GlcNAc(b1-3)Gal(b1-4)GlcNAc(b1-2)Man(a1-6)]Man(b1-4)GlcNAc(b1-4)GlcNAc
# In short: as §1
# [9] = target: Gal(b1-4)GlcNAc(b1-3)Gal(b1-4)GlcNAc(b1-3)Gal(b1-4)GlcNAc(b1-3)Gal(b1-4)GlcNAc(b1-2)Man(a1-3)[Gal(b1-4)GlcNAc(b1-3)Gal(b1-4)GlcNAc(b1-3)Gal(b1-4)GlcNAc(b1-3)Gal(b1-4)GlcNAc(b1-2)Man(a1-6)]Man(b1-4)GlcNAc(b1-4)[Fuc(a1-6)]GlcNAc
# In short: as §1
# [10] = target: Gal(b1-4)GlcNAc(b1-3)Gal(b1-4)GlcNAc(b1-3)Gal(b1-4)GlcNAc(b1-3)Gal(b1-4)GlcNAc(b1-2)[Gal(b1-4)GlcNAc(b1-3)Gal(b1-4)GlcNAc(b1-3)Gal(b1-4)GlcNAc(b1-3)Gal(b1-4)GlcNAc(b1-6)]Man(a1-6)[Gal(b1-4)GlcNAc(b1-3)Gal(b1-4)GlcNAc(b1-3)Gal(b1-4)GlcNAc(b1-3)Gal(b1-4)GlcNAc(b1-2)Man(a1-3)]Man(b1-4)GlcNAc(b1-4)[Fuc(a1-6)]GlcNAc
# In short: as §1
# [11] = target: Gal(b1-4)GlcNAc(b1-3)Gal(b1-4)GlcNAc(b1-3)Gal(b1-4)GlcNAc(b1-3)Gal(b1-4)GlcNAc(b1-3)Gal(b1-4)GlcNAc(b1-2)Man(a1-3)[Gal(b1-4)GlcNAc(b1-3)Gal(b1-4)GlcNAc(b1-3)Gal(b1-4)GlcNAc(b1-3)Gal(b1-4)GlcNAc(b1-3)Gal(b1-4)GlcNAc(b1-2)Man(a1-6)]Man(b1-4)GlcNAc(b1-4)GlcNAc
# In short: as §1
# [12] = target: Gal(b1-4)GlcNAc(b1-3)Gal(b1-4)GlcNAc(b1-3)Gal(b1-4)GlcNAc(b1-3)Gal(b1-4)GlcNAc(b1-3)Gal(b1-4)GlcNAc(b1-2)Man(a1-3)[Gal(b1-4)GlcNAc(b1-3)Gal(b1-4)GlcNAc(b1-3)Gal(b1-4)GlcNAc(b1-3)Gal(b1-4)GlcNAc(b1-3)Gal(b1-4)GlcNAc(b1-2)Man(a1-6)]Man(b1-4)GlcNAc(b1-4)[Fuc(a1-6)]GlcNAc
# In short: as §1
# [13] = target: Gal(b1-4)GlcNAc(b1-3)Gal(b1-4)GlcNAc(b1-3)Gal(b1-4)GlcNAc(b1-3)Gal(b1-4)GlcNAc(b1-3)Gal(b1-4)GlcNAc(b1-2)[Gal(b1-4)GlcNAc(b1-3)Gal(b1-4)GlcNAc(b1-3)Gal(b1-4)GlcNAc(b1-3)Gal(b1-4)GlcNAc(b1-3)Gal(b1-4)GlcNAc(b1-6)]Man(a1-6)[Gal(b1-4)GlcNAc(b1-3)Gal(b1-4)GlcNAc(b1-3)Gal(b1-4)GlcNAc(b1-3)Gal(b1-4)GlcNAc(b1-3)Gal(b1-4)GlcNAc(b1-2)Man(a1-3)]Man(b1-4)GlcNAc(b1-4)[Fuc(a1-6)]GlcNAc
# In short: as §1
# [14] = target: Gal(b1-4)GlcNAc(b1-3)Gal(b1-4)GlcNAc(b1-3)Gal(b1-4)GlcNAc(b1-3)Gal(b1-4)GlcNAc(b1-3)Gal(b1-4)GlcNAc(b1-3)Gal(b1-4)GlcNAc(b1-2)Man(a1-3)[Gal(b1-4)GlcNAc(b1-3)Gal(b1-4)GlcNAc(b1-3)Gal(b1-4)GlcNAc(b1-3)Gal(b1-4)GlcNAc(b1-3)Gal(b1-4)GlcNAc(b1-3)Gal(b1-4)GlcNAc(b1-2)Man(a1-6)]Man(b1-4)GlcNAc(b1-4)GlcNAc
# In short: as §1
# [15] = target: Gal(b1-4)GlcNAc(b1-3)Gal(b1-4)GlcNAc(b1-3)GalNAc
# In short: as §1
# [16] = target: Gal(b1-4)GlcNAc(b1-3)Gal(b1-4)GlcNAc(b1-3)[Gal(b1-4)GlcNAc(b1-3)Gal(b1-4)GlcNAc(b1-6)]GalNAc
# In short: as §1
# [17] = target: Gal(b1-4)GlcNAc(b1-3)Gal(b1-4)GlcNAc(b1-6)[Gal(b1-3)]GalNAc
# In short: as §1
# [18] = target: Gal(b1-4)GlcNAc(b1-3)Gal(b1-4)[Fuc(a1-3)]GlcNAc(b1-3)Gal(b1-4)[Fuc(a1-3)]GlcNAc
# In short: as §1
# [19] = target: Gal(b1-4)GlcNAc(b1-3)GalNAc
# In short: as §1
# [20] = target: Gal(b1-4)GlcNAc(b1-3)[Fuc(a1-3)GlcNAc(b1-6)]Gal(b1-4)Glc
# In short: as §1
# [21] = target: Gal(b1-4)GlcNAc(b1-3)[Gal(b1-4)GlcNAc(b1-6)]Gal(b1-4)GlcNAc
# In short: as §1
# [22] = target: Gal(b1-4)GlcNAc(b1-3)[GlcNAc(b1-6)]Gal(b1-4)GlcNAc
# In short: as §1
# [23] = target: Gal(b1-4)GlcNAc(b1-6)Gal(b1-4)GlcNAc
# In short: as §1
# [24] = target: Gal(b1-4)GlcNAc(b1-6)GalNAc
# In short: as §1
# [25] = target: Gal(b1-4)GlcNAc(b1-6)[Gal(b1-3)]GalNAc
# In short: as §1
# [26] = target: Gal(b1-4)GlcNAc(b1-6)[Gal(b1-4)GlcNAc(b1-3)]GalNAc
# In short: as §1
# [27] = target: Gal(b1-4)GlcNAc6P
# In short: as §1
# [28] = target: Gal(b1-6)Gal
# In short: as §1
# [29] = target: Gal3S(b1-3)GalNAc
# In short: as §1
# [30] = target: Gal3S(b1-3)GlcNAc
# In short: as §1
# [31] = target: Gal3S(b1-3)[Fuc(a1-4)]GlcNAc
# In short: as §1
# [32] = target: Gal3S(b1-4)Glc
# In short: as §1
# [33] = target: Gal3S(b1-4)Glc6S
# In short: as §1
# [34] = target: Gal3S(b1-4)GlcNAc
# In short: as §1
# [35] = target: Gal3S(b1-4)[Fuc(a1-3)]Glc6S
# In short: as §1
# [36] = target: Gal3S(b1-4)[Fuc(a1-3)]GlcNAc
# In short: as §1
# [37] = target: Gal3S(b1-4)[Fuc(a1-3)]GlcNAc6S
# In short: as §1
# [38] = target: Gal3S4S(b1-4)GlcNAc
# In short: as §1
# [39] = target: Gal3S6S(b1-4)GlcNAc
# In short: as §1
# [40] = target: Gal3S6S(b1-4)GlcNAc6S
# In short: as §1
# [41] = target: Gal4S(b1-4)GlcNAc
# In short: as §1
# [42] = target: Gal4S6S(b1-4)GlcNAc
# In short: as §1
# [43] = target: Gal6P(b1-4)GlcNAc
# In short: as §1
# [44] = target: Gal6S(b1-3)GlcNAc
# In short: as §1
# [45] = target: Gal6S(b1-3)GlcNAc6S
# In short: as §1
binder,measurement,setting,value
CTAEGIKKFEGDGYELFKDNFPAGEKFDNDDTNDQFYTVIF [MUB40 (Lactobacillus reuteri)],glycan array binding signal (z-score),[1],0.071
same,glycan array binding signal (z-score),[2],-0.339
same,glycan array binding signal (z-score),[3],-0.191
same,glycan array binding signal (z-score),[4],-0.72
same,glycan array binding signal (z-score),[5],1.1
same,glycan array binding signal (z-score),[6],1.93
same,glycan array binding signal (z-score),[7],-0.199
same,glycan array binding signal (z-score),[8],-0.35
same,glycan array binding signal (z-score),[9],-0.265
same,glycan array binding signal (z-score),[10],-0.319
same,glycan array binding signal (z-score),[11],3.44
same,glycan array binding signal (z-score),[12],-0.204
same,glycan array binding signal (z-score),[13],2.67
same,glycan array binding signal (z-score),[14],0.268
same,glycan array binding signal (z-score),[15],-0.362
same,glycan array binding signal (z-score),[16],-0.093
same,glycan array binding signal (z-score),[17],0.409
same,glycan array binding signal (z-score),[18],0.393
same,glycan array binding signal (z-score),[19],0.403
same,glycan array binding signal (z-score),[20],0.53
same,glycan array binding signal (z-score),[21],0.195
same,glycan array binding signal (z-score),[22],-0.22
same,glycan array binding signal (z-score),[23],-0.361
same,glycan array binding signal (z-score),[24],-0.132
same,glycan array binding signal (z-score),[25],-0.22
same,glycan array binding signal (z-score),[26],-0.321
same,glycan array binding signal (z-score),[27],-0.366
same,glycan array binding signal (z-score),[28],-0.492
same,glycan array binding signal (z-score),[29],-0.494
same,glycan array binding signal (z-score),[30],0.172
same,glycan array binding signal (z-score),[31],0.295
same,glycan array binding signal (z-score),[32],-0.165
same,glycan array binding signal (z-score),[33],-0.109
same,glycan array binding signal (z-score),[34],-0.289
same,glycan array binding signal (z-score),[35],0.497
same,glycan array binding signal (z-score),[36],-0.237
same,glycan array binding signal (z-score),[37],0.559
same,glycan array binding signal (z-score),[38],1.21
same,glycan array binding signal (z-score),[39],1.73
same,glycan array binding signal (z-score),[40],-0.232
same,glycan array binding signal (z-score),[41],-0.333
same,glycan array binding signal (z-score),[42],1.07
same,glycan array binding signal (z-score),[43],0.149
same,glycan array binding signal (z-score),[44],-0.392
same,glycan array binding signal (z-score),[45],0.023
